Literature values as cited in patent US20250134850A1 (priority 2023, published 2025).

Details: for target V40

## COc1cc(O[C@@H]2O[C@H](CO)[C@@H](O)[C@H](O)[C@H]2O)c2c(=O)cc(-c3ccccc3)oc2c1OC [Andrographidine C]
  absorption, distinguishing, metabolism and excretion (ADME) qualities: strong
